Test results as given in US20220389066A1 (Affibody, published 2022).

Tests used:
[1] = target: T1, human serum albumin (HSA) (human, UniProt P02768 25-609); assay: QCM (Attana A200); capture on immobilized HSA
T1 construct: Immobilized on sensor chips to capture ABD (PP013) fusions

HMGB3 = target: T2, HMGB3 (human, UniProt O15347 1-200, limits assumed); assay: SPR (Biacore 2000); ZZA4263 captured on immobilized HSA, analyte injected 8.3-675 nM; 1:1 Langmuir model
T2 construct: Bought protein
T2 sequence (looked up): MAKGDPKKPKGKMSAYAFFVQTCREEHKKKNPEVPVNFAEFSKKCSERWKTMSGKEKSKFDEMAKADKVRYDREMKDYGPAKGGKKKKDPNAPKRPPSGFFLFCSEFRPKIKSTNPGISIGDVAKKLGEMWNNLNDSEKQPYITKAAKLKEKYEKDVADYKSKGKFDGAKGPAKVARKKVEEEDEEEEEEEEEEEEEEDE
Procedure: HSA (Albucult®, Novozyme) was diluted to 10 μg/ml in acetate, pH 4.0, and immobilized onto a CM5 sensor chip using a Biacore 2000 instrument. Immobilization was performed by amine chemistry, using amine coupling kit, according to the manufacturer's instructions. The first surface of each chip was activated and deactivated for use as a reference cell (blank surface) during analyte injections. HBS-EP was used as running buffer, supplemented with 1.5 mM DTT when analyzing the binding to HMGB1(red). ZZA4263 was injected at a concentration of 100 nM for 4 minutes over the HSA and the reference sensor chip surfaces at a constant flow rate of 30 μl/min. This was followed by 4 minutes' injection of 0, 8.3, 25, 75, 225 and 675 nM of HMGB1(red), HMGB1(disulfide), HMGB2 (Biorbyt, cat. no. orb180287), HMGB3 (Biorbyt, cat. no. orb180288), SP100 (Biorbyt, cat. no. orb169341), TNF (R&D Systems, cat. no. 210-TA), IL-6 (R&D Systems, cat. no. 206-IL) and IL-1β (R&D Systems, cat. no. 201-LB/CF), respectively. The proteins were allowed to dissociate for 20 minutes before the chip surfaces were regenerated by two 10 second pulses using 10 mM HCl. The reference surface and the buffer sample were subtracted from all curves. The buffer sample was subtracted to adjust for the dissociation of ZZA4263 from HSA. All curves were fitted to a kinetic 1:1 Langmuir model in the BIA Evaluation software to estimate the binding properties (kₐ, kd and KD).
ZZA4263 was injected and captured on a surface with immobilized HSA followed by concentration series of HMGB1(red), HMGB1(disulfide), HMGB2, HMGB3, SP100, TNF, IL-6 and IL-1β. The highly homologous human proteins HMGB2, HMGB3, SP100 all bind to ZZA4263, although with 17-550 times lower affinity compared to HMGB1(red). No significant binding was detected to any of the other tested proteins involved in the HMGB1 signaling pathway (TNF, IL-6 and IL-1β).

[2] = target: T1, human serum albumin (HSA); assay: SPR (Biacore 2000); capture on immobilized HSA through the ABD moiety
T1 sequence (P02768 25-609 limits assumed): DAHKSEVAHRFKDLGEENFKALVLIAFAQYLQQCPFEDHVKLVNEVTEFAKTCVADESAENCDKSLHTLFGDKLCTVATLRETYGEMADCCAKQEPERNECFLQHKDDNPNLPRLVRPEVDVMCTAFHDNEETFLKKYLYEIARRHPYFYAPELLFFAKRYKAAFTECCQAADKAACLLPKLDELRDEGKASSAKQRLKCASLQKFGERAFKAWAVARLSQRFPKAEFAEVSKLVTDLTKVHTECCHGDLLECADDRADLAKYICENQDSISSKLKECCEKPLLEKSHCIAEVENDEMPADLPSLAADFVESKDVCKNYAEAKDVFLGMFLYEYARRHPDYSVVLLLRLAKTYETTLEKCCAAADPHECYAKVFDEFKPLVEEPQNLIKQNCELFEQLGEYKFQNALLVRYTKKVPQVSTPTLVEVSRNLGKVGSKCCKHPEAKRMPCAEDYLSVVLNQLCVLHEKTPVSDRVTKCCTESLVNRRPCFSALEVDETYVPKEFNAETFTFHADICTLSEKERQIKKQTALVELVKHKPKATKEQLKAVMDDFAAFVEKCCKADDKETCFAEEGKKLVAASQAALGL

[3] = target: T3, HMGB1(red), fully reduced form of full-length HMGB1 (HMGB1C23hC45hC106h) (rat, UniProt P63159 1-215, all cysteines reduced (C23h, C45h, C106h)); assay: SPR (Biacore 2000); Z-ABD captured on HSA, analyte injected, 2 mM DTT; 1:1 Langmuir model
T3 construct: Produced by HMGBiotech; also called HMGB1(reduced); b-HMGB1(red)
T3 sequence: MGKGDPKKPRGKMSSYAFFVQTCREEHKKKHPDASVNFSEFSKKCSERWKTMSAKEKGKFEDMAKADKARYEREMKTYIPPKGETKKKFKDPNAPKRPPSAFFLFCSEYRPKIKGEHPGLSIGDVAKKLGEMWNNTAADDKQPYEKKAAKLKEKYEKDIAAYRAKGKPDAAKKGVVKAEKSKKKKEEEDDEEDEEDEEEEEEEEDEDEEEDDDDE
Procedure: (§1) Biacore kinetic and specificity analysis: The interactions of the A-box binding Z-ABD polypeptides ZA3812 (SEQ ID NO:35) and ZA3914 (SEQ ID NO:36) with four different HMGB1 variants were analyzed in a Biacore instrument by injecting various concentrations of HMGB1 variants over a surface containing ZA3812 and ZA3914, respectively, captured on immobilized HSA. […] In addition, the interaction of the B-box binding Z-ABD polypeptide ZA3975 (SEQ ID NO:37) was analyzed for binding to HMGB1(red) in the same manner.

[4] = target: T4, GST-boxA(red), reduced form of A-box domain of HMGB1 with N-terminal GST tag (human, cysteines reduced); assay: as above
T4 construct: Used biotinylated (b-GST-boxA(red)) in ELISA; also called b-GST-boxA(red)
Procedure: as §1

[5] = target: T5, HMGB1(disulfide), disulfide linked form of full-length HMGB1 (HMGB1C23-C45C106h) (rat, UniProt P63159 1-215, disulfide C23-C45; C106 reduced); assay: SPR (Biacore 2000); Z-ABD captured on HSA, analyte injected; heterogeneous ligand parallel reactions model, KD2
T5 construct: unlabelled in Biacore and Attana; also called b-HMGB1(disulfide)
T5 sequence: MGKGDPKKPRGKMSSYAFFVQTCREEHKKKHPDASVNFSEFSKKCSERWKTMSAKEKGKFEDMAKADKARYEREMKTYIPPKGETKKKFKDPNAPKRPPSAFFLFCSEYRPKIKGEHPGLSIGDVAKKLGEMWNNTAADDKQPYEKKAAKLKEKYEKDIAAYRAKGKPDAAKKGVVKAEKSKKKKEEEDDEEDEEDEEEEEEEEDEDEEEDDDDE
Procedure: as §1

[6] = target: T5, HMGB1(disulfide), disulfide linked form …; assay: SPR (Biacore 2000); Z-ABD captured on HSA, analyte injected; heterogeneous ligand parallel reactions model, ka1
Procedure: as §1

[7] = target: T5, HMGB1(disulfide), disulfide linked form …; assay: SPR (Biacore 2000); Z-ABD captured on HSA, analyte injected; heterogeneous ligand parallel reactions model, kd1
Procedure: as §1

[8] = target: T5, HMGB1(disulfide), disulfide linked form …; assay: SPR (Biacore 2000); Z-ABD captured on HSA, analyte injected; heterogeneous ligand parallel reactions model, kd2
Procedure: as §1

Binder	binding result [1]	Kd (HMGB3) [nM]	koff (HMGB3) [s⁻¹]	kon (HMGB3) [M⁻¹ s⁻¹]	binding result [2]	Kd [3] [nM]	koff [3] [s⁻¹]	kon [3] [M⁻¹ s⁻¹]	Kd [4] [nM]	koff [4] [s⁻¹]	kon [4] [M⁻¹ s⁻¹]	Kd [5] [nM]	kon [6] [M⁻¹ s⁻¹]	koff [7] [s⁻¹]	koff [8] [s⁻¹]
ZZA4263, Z(boxB)-L2-Z(boxA)-ABD (designed binder, Heterodimer of ZH27 and ZH32 with PP013) AEAKYAKEAWLAEQEIWQLPNLTEAQFQAFILKLIDDPSQSSELLSEAKKLNDSQAPKGAPGGGGSTSAEAKYAKEDWDAFWEIIWLPNLTDAQQRAFIYKLEDDPSQSSELLSEAKKLNDSQAPKASGSLAEAKEAANAELDSYGVSDFYKRLIDKAKTVEGVEALKDAILAALP	binds	66	0.0013	20000	–	–	–	–	–	–	–	–	–	–	–
ZA3812 ([ZH 27]-ASGS-PP013) (designed binder) AEAKYAKEDWDAFWEIIWLPNLTDAQQRAFIYKLEDDPSQSSELLSEAKKLNDSQAPKASGSLAEAKEAANAELDSYGVSDFYKRLIDKAKTVEGVEALKDAILAALP	–	–	–	–	binds	0.81	0.0004	500000	1.1	7.6e-05	72000	2.7	160000	0.018	3.5e-05
